# Assay results taken from article PMC12040169 (PLOS Biology, 2025).
# The other results are listed elsewhere or left out.
# Test system: T1, C. trachomatis L2/434/Bu expressing GFP (CTL2-GFP)
# T1 construct: L2/434/Bu GFP intracellular growth in HeLa cells
# Parameters: species or system HeLa; C. trachomatis total inclusion area by high-content imaging, normalised to DMSO
# Conditions: total inclusion area; 28.5 h, 10 µM; inhibitor
# Summary of the method: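 After bulk GFP and resorufin fluorescence reads, cells were fixed, stained with Hoechst and imaged by high-content microscopy. Inclusion area and number (GFP) stood in for chlamydial growth, nuclei count (Hoechst) for host cell viability. MICs were derived as for the bulk readout.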
row,SMILES,% of control remaining
1,Cc1cc(NC(=O)C(C)(C)Oc2ccc(Cl)cc2)nc2c1c(=O)oc1ccccc12 [CBK291132],100.871
2,O=C(COc1cccnc1)NCc1ccc(-c2csnn2)cc1 [CBK149312],100.801
3,CS(=O)(=O)c1ccc(-c2ccnc3nc(N)ccc23)cc1 [CBK067648],100.909
4,COc1ccc(C)cc1S(=O)(=O)n1ccc2c(OC3CCCN(C)C3)nccc21 (stereo not shown) [CBK051582C],120.343
5,CC(C)CC(NC(=O)C1CCC(C)CC1)C(=O)O (stereo not shown) [CBK287212],101.754
6,COc1ccc(C(=O)Nc2nc(-c3nc4ccccc4s3)cs2)cc1 [CBK287563],118.219
7,Cc1ccc(NC(=O)N(Cc2ccccc2Br)CC(C)(C)CN)cc1[N+](=O)[O-] [CBK002436C],40.4254
8,COc1ccc(C2N3CCCN2CC3)cc1 (stereo not shown) [CBK067068],70.3155
9,COc1ccc(C2=NN(c3ccccc3)C(c3cn(-c4ccccc4)nc3-c3ccccc3)C2)cc1 (stereo not shown) [CBK263230],91.4144
10,Cc1onc(-c2ccccc2)c1CNC(=O)c1ccco1 [CBK144074],98.3174
11,Cc1cc(C(=O)NCc2cccnc2N(C)C2CCCCC2)nn1C [CBK306577],74.0977
12,COc1ccc([C@@]23CCCN(C(=O)Nc4ccc(C)c(F)c4)C[C@@H]2N(C)CC3)cc1OC [CBK056680T],66.8881
13,COC(=O)C(NC(=O)c1cnc(-c2ccc(Cl)cc2)c(-c2ccc(O)cc2)c1)c1ccccc1 (stereo not shown) [CBK036723],100.629
14,COC(=O)c1ccc(C)c(NS(=O)(=O)c2cc(Cl)ccc2Cl)c1 [CBK077971],96.9502
15,Cc1cccc(OCCn2c(SCCC(=O)O)nc3ccccc32)c1 [CBK264682],100.357
16,C#CCNC(=O)CC[C@H]1CNC(=O)[C@@H]2[C@@H](CCN2Cc2ccc(C)cc2)N1C [CBK289036],118.866
17,Cc1cc(CN(C)Cc2c(C)nn(-c3ccc(F)cc3)c2C)n[nH]1 [CBK281990],103.402
18,Nc1cccc(-c2nccnc2NCCc2ccccn2)c1 [CBK037512],85.3539
19,CC(C)N1CC[C@@H]2[C@H]1C(=O)NC[C@H](CCC(=O)Nc1ccccc1)N2C [CBK289030],117.584
20,C[C@H](Nc1cncc(-c2cccc(C(=O)NCCO)c2)n1)c1ccccc1 [CBK066007],87.9156

row,SMILES,% of control remaining
1,CCn1c(C)nc2cc(NC(=O)c3cnn(C)c3)ccc21 [CBK281837],117.456
2,CC(C)NS(=O)(=O)c1ccc(NS(=O)(=O)c2ccc(F)c(C(=O)O)c2)cc1 [CBK297533],83.4375
3,COc1cc(OC)nc(C(NC(=O)C2CCN(Cc3ccccc3F)CC2)c2ccc(Cl)cc2)n1 (stereo not shown) [CBK148152],77.6082
4,Cc1ccccc1C(=O)NC(=S)Nc1sc2c(c1C(N)=O)CCC2 [CBK262107],91.7366
5,O=C(O)c1ccc(CSc2nnnn2-c2ccccc2)cc1 [CBK286726],78.5677
6,COc1ccccc1CCCN1CCC(C(=O)NC(=O)Nc2ccccc2)CC1 [CBK034865],94.5629
7,CCN(CC)CCn1c(=N)n(Cc2ccc(C(C)(C)C)cc2)c2ccccc21 [CBK268803B],50.1283
8,Fc1ccc(CSc2nnnn2-c2ccc3c(c2)OCO3)cc1 [CBK293927],76.321
9,Clc1ccc(C2NCCS2)c(Cl)c1 (stereo not shown) [CBK027425],114.435
10,CC(=O)Nc1ccc(S(=O)(=O)/N=C(/Nc2nc(C)cc(C)n2)Nc2ccccc2C)cc1 [CBK264101],108.319
11,O=C(Cn1nc2n(c1=O)CCCCC2)NCC(O)c1ccc(F)cc1 (stereo not shown) [CBK305187],75.2296
12,COc1ccc(CCNC(=O)N(C)C2CCN(C)C2)cc1 (stereo not shown) [CBK156019],94.4131
13,O=c1[nH]cc(-c2ccc(F)cc2)cc1CNCc1cccc(F)c1 [CBK284697],79.5043
14,O=C(Cn1cccc(C(=O)NC2CCCC2)c1=O)NCC1(c2ccccc2)CCCC1 [CBK285975],128.077
15,CCOC(=O)C1(N)CCCC1 [CBK073836C],41.9051
16,O=C(NCCN1CCOCC1)c1nnc(C(=O)Nc2cccc(Cl)c2)s1 [CBK294405],91.6871
17,Nc1ncc(-c2cc(C(F)(F)F)cc(C(F)(F)F)c2)nc1NC1CCC(O)CC1 (stereo not shown) [CBK063808],97.4571
18,Cc1cnc2[nH]c(C(F)(F)F)c(CN3CCCC(CO)C3)c2c1 (stereo not shown) [CBK285167],94.7579
19,CN1CC=C(/C=C/C2=Cc3ccccc3OC2)CC1 [CBK283857],86.9429
20,COCc1nnc(Sc2ccc(C(F)(F)F)cn2)s1 [CBK115219],86.8644
